# Experimental data taken from PubChem BioAssay AID1347073 (National Center for Advancing Translational Sciences (NCATS), 2019).
# In all, about 45,000 compounds went through this assay and about 200 (0.44%) were called active. Inconclusive results (about 7%) are left out. The call rests on the fitted dose curve; in most records, active means well fitted activation curve with a large enough effect; inconclusive means small, poorly fitted or top-dose-only effect; inactive means no such curve, though single readings can be large or run the other way. Some of the results follow.
# Assay: qHTS of TDP-43 Inhibitors: NCGC Sytravon Library Screen; further: 0% is about no effect; nearly all actives have a fitted effect of over 55% in size
# Conditions: yeast TDP-43 toxicity rescue, BacTiter-Glo growth, 24 h; series mostly up to 46.1 µM; growth rescue (activation): at the top concentration
# Summary of the method: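 TDP-43-expressing yeast, pregrown in raffinose, seeded at OD600 0.02 in galactose medium with compound for 24 hr at 30 deg C. Growth read by BacTiter-Glo luminescence, so rescue of toxicity appears as activation.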
row,Structure (SMILES),growth rescue (activation)
1,Cc1ccc(S(=O)(=O)c2cc3c(=O)n4ccccc4nc3n(C3CCCC3)c2=N)cc1,inactive: -7.88%
2,CCOC(=O)C1(C)CCCN1C(=O)c1ccc(C(F)(F)F)nc1C (stereo not given),inactive: 0.611%
3,CC(C)N1CCN(Cc2nc(-c3ccccc3)cs2)CC1CCO (stereo not given),inactive: -5.17%
4,COC(=O)[C@H](CCSC)NC(=O)c1cc2c(cn1)[nH]c1ccccc12,inactive: -6.36%
5,O=C(/C=C/c1ccc([N+](=O)[O-])cc1)Nc1ncc([N+](=O)[O-])s1,inactive: -5.18%
6,N#Cc1ccc(C(=O)NNC(=O)c2cccc(S(=O)(=O)N3CCOCC3)c2)cc1,inactive: -28.7%
7,Cc1cc(C)cc(-n2c3ccc(NC(=S)NC4CCCCC4)cc3c(=O)n2C)c1,inactive: 8.75%
8,CCC(C)NC(=O)C1CCN(S(=O)(=O)c2cccc3nonc23)CC1 (stereo not given),inactive: 9.65%
9,CC(=O)Nc1ccc(S(=O)(=O)NCCC(=O)Nc2ccc(C)c(F)c2)cc1,inactive: -14.3%
10,CCN(CC)C(=O)c1ccccc1NC(=O)c1ccccc1,inactive: -3.11%
11,CNC(=O)COC(=O)COc1ccc2c(C)cc(=O)oc2c1,inactive: 5.94%
12,O=C(COC(=O)c1cc(Cl)ccc1Cl)NCCN1C(=O)CSC1=O,inactive: 10.7%
13,COc1ccc(NC(=O)Cc2nnc(SCC(=O)Nc3nccs3)n2C)cc1,inactive: -6.23%
14,CCN(CC)c1ccc(C(=O)OCC(=O)Nc2sccc2C#N)cc1,inactive: 9.34%
15,CSCC[C@H](Nc1ncnc2sc(C)c(C)c12)C(=O)O,inactive: 8.12%
16,O=C(Cc1cccs1)N1CCN(c2cccc(Cl)c2)CC1,inactive: 3.82%
17,COc1ccc(/C=C(/NC(=O)c2ccccc2)C(=O)N2CCOCC2)cc1OC,inactive: 17.8%
18,COc1cc(C)ccc1S(=O)(=O)NC(=O)Cn1nnc(COc2ccc3c(c2)CCCC3)c1C,inactive: 8.93%
19,Cc1ccc(S(=O)(=O)N(CC(=O)N=Nc2c(O)[nH]c3ccccc23)c2ccc(C)c(C)c2)cc1,inactive: 8.13%
20,CC(=O)Nc1ccc(N(CC(=O)NC2CCCC2)C(=O)CCC(=O)Nc2cc(C)on2)cc1,inactive: 11.4%
21,COCCNC(=O)Cn1c(=O)n(CCCCCC(=O)NCc2ccccc2Cl)c(=O)c2sccc21,inactive: 0.201%
22,CC(=O)Nc1ccc(NC(=O)COC(=O)COc2ccc3ccccc3c2)cc1,inactive: 5.46%
23,CC(C)(C)c1ccc(C(=O)NC(=S)NCc2cccnc2)cc1,inactive: 20.1%
24,O=C(c1ccc2ccccc2n1)N1CCN(Cc2c(F)cccc2Cl)CC1,inactive: 22.8%
25,CNc1c(NS(=O)(=O)c2ccc(Cl)cc2)c(=O)oc2ccccc12,inactive: 3.29%
26,Cc1cccc(NC(=S)N2CCN(Cc3ccccc3)CC2)c1C,inactive: 28.5%
27,COc1ccc(CN(C(=O)c2cc3ccccc3oc2=O)C2CCS(=O)(=O)C2)cc1OC (stereo not given),inactive: -7.69%

row,Structure (SMILES),growth rescue (activation)
1,CS(=O)(=O)c1ccc(NS(=O)(=O)c2ccc3ccccc3c2)cc1,inactive: -6.5%
2,O=C(CCCc1cccs1)Nc1nc(-c2ccc(F)cc2)cs1,inactive: 6.21%
3,Cc1ccc(NC2=C/C(=N/S(=O)(=O)c3cccs3)c3ccccc3C2=O)cc1,inactive: -17.4%
4,COc1ccc(CCn2cc(C#N)c(=O)[nH]c2=O)cc1OC,inactive: 2.09%
5,Cc1cccc(C)c1NC(=O)c1cccc(N2C(=O)C3CCC(C)CC3C2=O)c1 (stereo not given),inactive: 22.4%
6,CCN1CCN(c2nc(-c3ccccc3)c3ccccc3n2)CC1,inactive: -0.091%
7,CC(C)c1nnc(NC(=O)C2CCCN2C(=O)Nc2cccc(Cl)c2)s1 (stereo not given),inactive: -4.28%
8,CCC(=O)OCCNc1nc(-c2ccccc2)nc2ccccc12,inactive: 26.6%
9,COc1cccc(C(=O)COc2ccccc2N2C(=O)C3C4C=CC(C4)C3C2=O)c1 (stereo not given),inactive: -1.46%
10,COc1ccc(Nc2nccc(N(C)C)c2C#N)cc1,inactive: 5.17%
11,Cc1ccc(C(=O)c2no[n+]([O-])c2C(=O)c2ccc(C)cc2)cc1,inactive: -93.9%
12,COc1ccc(C(=O)NCC(=O)N2CCN(c3ccc(F)cc3)CC2)cc1,inactive: 9.61%
13,CC1(C(=O)NCc2ccco2)Cc2c(-c3cccc(C(N)=O)c3)ccnc2O1 (stereo not given),inactive: 4.92%
14,CN1CCCN(C(=O)c2cc(-c3cccc4ccccc34)nc3ccccc23)CC1,inactive: -2.78%
15,CCOC(=O)C1CCN(C(=S)Nc2ccc(Cl)cc2C)CC1,inactive: 16.2%
16,CCOC(=O)C1CCN(C(=O)N(CC)CC)CC1,inactive: 15.9%
17,COc1ccc(CCC(=O)Nc2ccc(S(=O)(=O)Nc3nccc(C)n3)cc2)cc1,inactive: 12.8%
18,Cc1cc(Cl)ccc1OCC(=O)OCC(=O)Nc1ccc(F)c([N+](=O)[O-])c1,inactive: -13.9%
19,CCn1c(SCC(=O)NNC(=O)c2ccc(C)cc2)nnc1C1CC1,inactive: -4.44%
20,O=C1C2C(c3ccccc3)=NN(c3ccccc3)C2C(=O)N1c1ccccc1 (stereo not given),inactive: 15.1%
21,COc1cccc(CNC(=O)c2ccc(N3CCOCC3)c([N+](=O)[O-])c2)c1,inactive: 11.3%
22,Cc1nc(C(=O)N(C)C)nn1-c1ccc([N+](=O)[O-])cc1,inactive: 6.8%
23,CSCCC(=O)Nc1cc(S(=O)(=O)N2CCOCC2)ccc1N1CCN(C)CC1,inactive: -10.8%
24,CCN1CCN(C(=O)C2CCCN(S(=O)(=O)c3ccc(OC)c(OC)c3)C2)CC1 (stereo not given),inactive: 5.23%
25,CC(C)(C)NC(=O)COC(=O)c1ccc(F)cc1Cl,inactive: -1.07%
26,Cc1ccc(NC(=O)Cn2cnc([N+](=O)[O-])c2)cc1C,inactive: -10.8%
27,Cc1ccccc1NCC(=O)N/N=C/c1c(C)c(C(=O)c2ccc(Cl)cc2)n2ccccc12,inactive: 15.8%

row,Structure (SMILES),growth rescue (activation)
1,CN(Cc1ccccn1)Cc1nc(COc2ccccc2)no1,inactive: 11%
2,CCOC(=O)c1ccc(NC(=O)Cn2nnc(-c3ccccc3F)n2)cc1,inactive: 27%
3,CCCc1nc2ccccc2n1CC(O)COc1ccc(C(=O)OC)cc1 (stereo not given),inactive: 0.23%
4,Cc1c(C(=O)NC2CCCCC2)oc2ccc(F)cc12,inactive: 5.49%
5,COCCCN1C(=O)c2ccccc2CC1(C)C(=O)NC1CCCCC1 (stereo not given),inactive: -6.75%
6,CC(NC(=O)COC(=O)CCc1nc(=O)c2ccccc2n1C)c1ccccc1 (stereo not given),inactive: 13.9%
7,Cc1ccc(C2=NN(CC(=O)NCc3ccccn3)C(=O)CC2)cc1,inactive: 0.104%
8,COc1ccccc1NC(=O)CCc1nc(-c2cccs2)no1,inactive: 44.1%
9,COc1ccc(NS(=O)(=O)c2ccc(C(=O)Nc3c(C)n(C)n(-c4ccccc4)c3=O)cc2)cc1,inactive: -77.2%
10,O=[N+]([O-])c1cccc(-c2nnc3cccc(Cl)n23)c1,inactive: 23.2%
11,Cc1ccc(S(=O)(=O)N(C)C)cc1NC(=S)N1CCCCC1CO (stereo not given),inactive: 3.96%
12,Cc1ccc(-n2nnnc2SCC(=O)NCC2(N3CCOCC3)CCCCC2)cc1,inactive: 6.64%
13,Cc1cc(NC(=O)c2sc(Nc3ccc(F)cc3)nc2N)no1,inactive: 10.5%
14,Clc1ccc2c(N/N=C/c3cccnc3)ccnc2c1,inactive: 9.83%
15,Cn1c(=O)[nH]c(=O)c2c1nc(SCC(=O)O)n2CCOc1ccccc1,inactive: 6.17%
16,CCCCCC(=O)Nc1ccc(S(=O)(=O)Nc2nccc(C)n2)cc1,inactive: -6.05%
17,COc1ccccc1OCCCOc1c(C)cc(C)cc1Br,inactive: 26.9%
18,O=C(Nc1ncc(Cc2ccccc2Cl)s1)c1ccc([N+](=O)[O-])cc1,inactive: 15.2%
19,O=C(CSc1nnc(-c2ccccc2Cl)o1)N1CCOCC1,inactive: 13.7%
20,O=C(CN1C(=O)C2C3C=CC(C4CC34)C2C1=O)Nc1cnc2ccccc2c1 (stereo not given),inactive: 6.78%
21,CCOC(=O)c1c(N)sc(N)c1C(=O)OCC,inactive: -1.71%
22,COc1cccc(-n2c(=S)sc3c(=O)n(-c4ccccc4OC)c(SCC4OCCO4)nc32)c1,inactive: -5.69%
23,NS(=O)(=O)c1ccc(NC(=O)CCC(=O)N2CCOCC2)cc1,inactive: 1.95%
24,COc1cc(C)c(NC(=S)Nc2ccc(Cl)c(Cl)c2)cc1OC,inactive: 16.7%
25,COC(=O)c1sc(N)c(C(=O)OC)c1COC(=O)C12CC3CC(CC(O)(C3)C1)C2,inactive: 6.31%
26,COCCN(C(=O)CCC(=O)Nc1cc(C)on1)C(C(=O)NC(C)(C)C)c1ccccc1Cl (stereo not given),inactive: 14%
27,Cc1cccc(Nc2c3c(nc4nncn24)CCC3)c1,inactive: 25.2%

row,Structure (SMILES),growth rescue (activation)
1,CCc1ccc(NC(=O)Nc2cccc(OC)c2)cc1,inactive: 14.2%
2,Cc1ccc(-c2cc(C(=O)NCCc3ccccc3)c3c(-c4ccc(C)cc4)[nH]nc3n2)cc1,inactive: 8.13%
3,O=C(N/C(=C\c1ccc(Cl)cc1)C(=O)N1CCCCC1)c1ccco1,inactive: 11.7%
4,CCN(CC)CCCN(Cc1cc2cc3c(cc2[nH]c1=O)OCO3)C(=S)Nc1ccccc1,inactive: 0.66%
5,COc1ccc(N2CCN(CCCNC(=O)C3CCN(S(=O)(=O)N4CCOCC4)CC3)CC2)cc1,inactive: 14%
6,O=C(COc1ccc(Br)cc1)Nc1ccc(NC(=O)c2ccccc2)cc1,inactive: -1.21%
7,CCCCN(C)CCNC(=O)c1cc2c(-c3cccc(OC)c3)nn(C)c2s1,inactive: 12.9%
8,COc1cc(/C=N/NC(=O)c2ccncc2)ccc1OCC(=O)Nc1cccc([N+](=O)[O-])c1,inactive: -8.08%
9,CC(=O)c1cccc(NC(=O)c2cc(=O)[nH]c3ccccc23)c1,inactive: 12.3%
10,CCOC(=O)c1sc(NC(=O)/C=C/c2c(F)cccc2Cl)nc1C,inactive: 14.3%
11,COc1ccc(-c2nnn(CC(=O)NCCc3ccc(OC)c(OC)c3)n2)cc1,inactive: 6.42%
12,C=CCN(CC=C)C(=O)CN1C(=O)NC(c2ccccc2)(c2ccccc2)C1=O,inactive: 7.86%
13,CCCCN(C)C(=O)CCC(=O)Nc1ccc2nc(N3CCN(C)CC3)cc(C)c2c1,inactive: 8.09%
14,CC1=C(C(=O)O)N2C(=O)C(NC(=O)c3ccccc3Cl)C2SC1 (stereo not given),inactive: 1.36%
15,CC1=NN(c2ccccc2)C(=O)C1C(=O)c1ccccc1 (stereo not given),inactive: 24.9%
16,O=C(c1ccc2c(c1)N(Cc1ccccc1)C(=O)c1ccccc1S2(=O)=O)N1CCN(c2ccccn2)CC1,inactive: 8.05%
17,COc1ccc(CC(=O)OC(C)CN2CCCCC2)cc1 (stereo not given),inactive: -0.417%
18,CCSc1ncc(Cl)c(C(=O)Nc2c(C(=O)Nc3ccc(Cl)cc3)oc3ccccc23)n1,inactive: -4.22%
19,CC(C)N1CCC1(C)C(=O)Nc1cccc(C#N)c1 (stereo not given),inactive: 1.45%
20,COCCn1c(=O)[nH]c2cc(C(=O)NCCc3ccc(S(N)(=O)=O)cc3)ccc2c1=O,inactive: 11.1%
21,COC(=O)[C@@H](Cc1c[nH]c2ccccc12)NC(=O)CNC(=O)c1ccccc1OC,inactive: 12.4%
22,O=C(OCc1cc2ccccc2[nH]c1=O)C1CCCCC1,inactive: -16.1%
23,COc1ccc(/C=C/c2noc(-c3ccccc3O)n2)cc1,inactive: -28.8%
24,Cc1cc(C)cc(C(=O)NCC(=O)OCC(=O)N2c3ccccc3NC(=O)C2(C)C)c1,inactive: 6.5%
